Laboratory results: paper PMC4336329 (PLoS ONE, 2015)
Among all 310,000 compounds or so, about 14,000 (4.5%) showed an effect of 50% or more. Effects have a minus sign here. Some of the results follow.

These compounds were tested against human ether-à-go-go-related gene (hERG) potassium channel (human, UniProt Q12809) (assay: primary screen, population patch clamp on CHO cells stably expressing hERG).
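Also: peak tail current of the secondary pulse compared with the same well before compound.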

human ether-à-go-go-related gene (hERG) potassium channel, sequence (Q12809 whole entry, looked up): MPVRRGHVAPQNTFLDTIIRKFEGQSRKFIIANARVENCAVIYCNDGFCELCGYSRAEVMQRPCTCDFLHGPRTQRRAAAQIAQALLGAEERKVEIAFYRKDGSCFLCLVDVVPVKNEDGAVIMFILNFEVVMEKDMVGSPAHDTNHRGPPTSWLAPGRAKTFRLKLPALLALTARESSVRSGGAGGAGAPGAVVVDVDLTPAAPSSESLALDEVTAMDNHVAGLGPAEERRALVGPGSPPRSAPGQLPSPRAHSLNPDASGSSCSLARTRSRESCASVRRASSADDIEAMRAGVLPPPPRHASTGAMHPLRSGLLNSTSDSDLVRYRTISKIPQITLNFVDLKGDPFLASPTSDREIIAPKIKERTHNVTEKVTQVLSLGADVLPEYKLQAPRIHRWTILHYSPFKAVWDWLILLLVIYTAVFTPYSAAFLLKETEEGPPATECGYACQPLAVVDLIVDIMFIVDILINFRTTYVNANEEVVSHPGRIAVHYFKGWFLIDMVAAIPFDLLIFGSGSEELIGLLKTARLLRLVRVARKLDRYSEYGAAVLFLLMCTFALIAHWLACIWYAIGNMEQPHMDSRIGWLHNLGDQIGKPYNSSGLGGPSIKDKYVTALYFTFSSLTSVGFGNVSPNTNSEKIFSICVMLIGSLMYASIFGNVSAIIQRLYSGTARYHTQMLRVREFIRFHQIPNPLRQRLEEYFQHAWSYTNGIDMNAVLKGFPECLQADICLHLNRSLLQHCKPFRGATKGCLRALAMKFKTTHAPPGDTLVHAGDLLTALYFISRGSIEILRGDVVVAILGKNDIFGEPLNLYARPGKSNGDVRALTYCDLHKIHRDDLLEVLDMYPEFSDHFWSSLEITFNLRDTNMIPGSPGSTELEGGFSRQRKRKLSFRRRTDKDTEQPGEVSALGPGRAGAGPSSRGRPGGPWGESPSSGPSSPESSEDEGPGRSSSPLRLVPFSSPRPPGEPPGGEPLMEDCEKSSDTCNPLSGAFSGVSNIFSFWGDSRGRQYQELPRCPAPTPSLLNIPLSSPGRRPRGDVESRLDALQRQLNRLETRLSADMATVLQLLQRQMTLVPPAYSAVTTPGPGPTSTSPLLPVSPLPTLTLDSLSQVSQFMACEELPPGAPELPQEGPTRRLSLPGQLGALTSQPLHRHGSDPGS

| SMILES | hERG current change (%, negative = inhibition) at 10uM |
| --- | --- |
| CCCCOc1cccc(C(=O)NC(=S)Nc2cccnc2)c1 | -7.19% |
| NC(=O)CSc1nnc(-c2cc3ccccc3o2)n1Cc1ccccc1 | -7.16% |
| Cc1nc2c(-c3ccccc3)cnn2c(N2CCOCC2)c1C | 11.8% |
| Cc1cccc(NC(=O)c2cnn(-c3ccc(F)cc3)c2C2CCNCC2)c1C.Cl | -9.71% |
| O=C1N/C(=N\N=C\c2ccc3ncccc3c2)SC1Cc1ccc(SC(F)F)cc1 (stereo not shown) | 8.42% |
| CCOc1cc(C(=O)Oc2cc(C)[nH]c(=O)c2[N+](=O)[O-])cc(OCC)c1OCC | 21.5% |
| Cc1c(Cl)c(-c2n[nH]c(=S)n2CC(C)C)nn1C | 20% |
| CCc1noc(C)c1C(=O)Oc1ccc(N(C)S(=O)(=O)c2ccc(C)c(C)c2)cc1 | 11.4% |
| O=C(Nc1ccc(O)cc1)C1CC=CCC1 (stereo not shown) | -3.93% |
| COCC(=O)Nc1cc(C)cn(Cc2ccc(F)cc2)c1=O | -12.1% |
| Cc1cccc(NC(=O)CCS(=O)(=O)c2ccc(Cl)cc2)c1 | 9.09% |
| Cc1ccccc1-c1nc2sc3c(c2c(=O)n1N)CCCC3 | -0.971% |
| COC(=O)Cn1cc(/C=C/c2cc[n+](C)cc2)c2ccccc21.[I-] | 5.7% |
| CCCCCC(=O)Nc1nc(C)c(-c2csc(Nc3cc(Cl)ccc3C)n2)s1 | 31.7% |
| O=C(C[n+]1ccc(/C=N/O)cc1)NC1CCCCC1.[Cl-] | 11% |
| Cc1ccc(-c2noc(C3CCN(S(C)(=O)=O)CC3)n2)o1 | -18% |
| O=C(/C=C/c1cccc([N+](=O)[O-])c1)OCC1CCCO1 (stereo not shown) | 0.83% |
| CN1CCC(N(C)CC(C)(C)NS(=O)(=O)c2ccccc2)CC1.Cl | -9.97% |
| C/C(=N\NC(=O)c1nn(C)c(C)c1Br)c1ccc(NC(=O)c2ccoc2C)cc1 | -0.832% |
| COc1cc(-c2nnc(COc3ccc(Cl)cc3C)o2)cc(OC)c1OC | 0.0728% |
| Cc1cccc(NC(=O)c2ccc3c(=O)n(CC4CCCO4)c(=S)[nH]c3c2)c1 (stereo not shown) | 1.86% |
| Cn1c(CC(=O)Nc2ccc(Cl)c(Cl)c2)n[nH]c1=S | 11.1% |

| SMILES | hERG current change (%, negative = inhibition) at 10uM |
| --- | --- |
| CC(C)(C)c1cc(/C=N/NC(=O)C[n+]2ccccc2)cc(C(C)(C)C)c1O.[Cl-] | 25.5% |
| CCO/C=N/Nc1nc(C(F)(F)F)nc2c1cnn2Cc1ccccc1 | 2.56% |
| COC(=O)c1ccc(CN2C(=O)NC(CC(C)C)C2=O)cc1 (stereo not shown) | -1.68% |
| COc1cccc(N(CC(=O)N2CCCCCC2)S(C)(=O)=O)c1 | 1.69% |
| COc1ccc(-c2nn(-c3ccccc3)cc2C(=O)N2CCN(S(=O)(=O)c3ccccc3C#N)CC2)cc1 | -34.5% |
| O=C(Nc1ccc(F)cc1F)c1cc2nc3c(c(C(F)(F)F)n2n1)CCCC3 | -4.5% |
| CCCCNC(=O)c1nn2cc(Br)cnc2c1Br | -62.3% |
| Cc1c(C(=O)Nc2cccnc2Cl)oc2ccccc12 | -0.175% |
| COc1ccc(C)cc1S(=O)(=O)NCCC1=CCCCC1 | -5.55% |
| Cc1nc(C#N)c(N/N=C/c2cccc(Cl)c2)o1 | -0.988% |
| O=C(COc1ccc2ccccc2c1)Nc1cccc2c1C(=O)NC2=O | 9.6% |
| O=C(CSc1nnc(Cc2cc(=O)[nH]c(=O)[nH]2)n1-c1ccccc1)N1CCCC1 | 15.4% |
| CCSc1nnc(NC(=O)C2C3C=CC(C3)C2C(=O)O)s1 (stereo not shown) | 7.22% |
| CCCCOc1ccc(Cc2c(Cl)nc(SC)nc2N2CCOCC2)cc1 | 5.48% |
| CN(C(=O)c1cc(COc2ccc(F)cc2Cl)on1)C1CCCc2ccccc21 (stereo not shown) | 18.7% |
| CCOc1ccc(Cl)cc1S(=O)(=O)n1cnc2ccccc21 | -4.02% |
| COc1ccc(-n2nc([N+](=O)[O-])c(=NCc3ccco3)n2O)cc1 | 6.77% |
| CC1CCN(C(=O)C(NS(=O)(=O)c2cccc3nsnc23)c2ccccc2)CC1 (stereo not shown) | -69.5% |
| Cn1nnnc1SCC(=O)N1CCN(S(=O)(=O)c2ccc(Cl)cc2)CC1 | -29.8% |
| CCCc1[nH]nc2c1C(c1ccc(Br)s1)C(C#N)=C(N)O2 (stereo not shown) | 17.1% |
| COc1ccc(C(=O)/C=C/Nc2ccc(S(=O)(=O)Nc3nc(C)cc(C)n3)cc2)c(OC)c1 | -11.6% |
| Cc1noc(C)c1S(=O)(=O)N(C)CC(=O)NCc1ccccc1 | -8.26% |

| SMILES | hERG current change (%, negative = inhibition) at 10uM |
| --- | --- |
| CCC(=O)N=c1sc2c(C)cc(C)cc2n1CC(=O)OC | -9.78% |
| CC1Cc2ccccc2N1C(=O)c1cc2sccc2n1Cc1ccc(F)cc1 (stereo not shown) | 12.3% |
| O=C(NCCS(=O)(=O)N1CCN(c2ccccc2F)CC1)C1CC(=O)N(c2ccccc2)C1 (stereo not shown) | 22.8% |
| COc1ccc(CNC(=S)Nc2ccccc2Cl)cc1 | 8.75% |
| Cc1cc(NC(=O)C(C)SCC(=O)Nc2ccccc2C(C)(C)C)no1 (stereo not shown) | -1.93% |
| O=C(CN1C(=O)NC2(CCc3ccccc32)C1=O)c1ccc(F)cc1 (stereo not shown) | -57.4% |
| N#Cc1ccc(C(=O)N(Cc2ccccc2)c2ccccc2)cc1 | -10.5% |
| O=C(CSc1nccc(=O)[nH]1)Nc1ccc(F)c(Cl)c1 | 16.7% |
| COc1cc(Nc2c3c(nc4ccccc24)CCCC3)cc(OC)c1OC | -65.9% |
| CCC1CCCCN1CCCNC(=O)C1CCCN(S(=O)(=O)N2CC(C)CC(C)C2)C1 (stereo not shown) | -20.7% |
| COc1ccc(NC(=S)N/N=C/c2ccc(F)cc2)cc1OC | 12.4% |
| COc1ccccc1NC(=O)CCCCCN1C(=O)c2cccc([N+](=O)[O-])c2C1=O | -39.2% |
| Cc1ccc(C(=O)NNC(=O)Cc2ccccc2)cc1 | -3.32% |
| CC(C)[C@H](NC(=O)OCc1ccccc1)C(=O)OCc1ccccc1 | -17.6% |
| c1cncc(C(c2nnnn2C2CCCCC2)N2CCCCC2)c1 (stereo not shown) | -5.85% |
| CNS(=O)(=O)c1cc(-c2nnc(Nc3ccc(NC(C)=O)cc3)c3ccccc23)ccc1C | 19.2% |
| COc1ccc(C(=O)OCC(=O)c2ccc(Br)s2)c(OC)c1 | 4.06% |
| CCN1CCN(C(c2ccc(OC)cc2)c2nnnn2Cc2ccc3c(c2)OCO3)CC1.Cl (stereo not shown) | -45.4% |
| CNC(=O)NC(=O)COC(=O)c1n[nH]c2ccccc12 | 16.5% |
| CCOC(=O)C1=C(CCc2ccccc2)NC(=O)NC1c1cccc([N+](=O)[O-])c1 (stereo not shown) | 6.22% |
| Cc1onc(-c2c(Cl)cccc2Cl)c1-c1nnc(-c2ccc(Cl)cc2)o1 | 12.7% |
| CCOC(=O)c1ccc(Nc2nc(C)cc(C)c2C#N)cc1 | 5.18% |

| SMILES | hERG current change (%, negative = inhibition) at 10uM |
| --- | --- |
| CCOc1nc(Nc2cc(Cl)ccc2OC)nc(OCC)n1 | 19.7% |
| O=c1cc(-c2ccc(O)cc2)oc2c1ccc1ccccc12 | -3.85% |
| Cc1ccccc1OC(=O)C1C(c2ccccc2)C(C(=O)O)C1c1ccccc1 (stereo not shown) | -7.68% |
| CN1N=C(C(C)(C)C)CSC1=Nc1ccc(F)cc1 | -6.7% |
| CCOC(=O)Nc1ccc(S(=O)(=O)Nc2cc(C)on2)cc1 | 6.84% |
| Fc1ccc(-c2cc(C(F)(F)F)nc(-n3cncn3)n2)cc1 | -22.1% |
| CCOC(=O)N1CCN(C(=O)COc2cc(C)c(Cl)c(C)c2)CC1 | 2.21% |
| CCC(=O)N1CCCn2c1nc1ccccc12 | 5.2% |
| CC(C)=Nc1ccccc1C1COC(=O)C1=N (stereo not shown) | 0.455% |
| Cc1cccc(NC(=O)Nc2nnc(-c3ccccc3)o2)c1 | 7.63% |
| COc1cccc(-n2c(=O)c3cc(OC)c(OC)cc3n(CC(=O)Nc3cc(C)[nH]n3)c2=O)c1 | 8.21% |
| Cc1ccc(S(=O)(=O)N2CCN(C(=O)CCn3cncn3)CC2)cc1C | 10.2% |
| CCCCC(CCC(=O)Nc1ccc(C(=O)OC)cc1)C(=O)O (stereo not shown) | 16% |
| COc1ccc(C(=O)C2CCCN(Cc3ccc(Sc4nncn4C)o3)C2)cc1F (stereo not shown) | -15.4% |
| CC(=O)Nc1ccc(NC(=O)Nc2cccc(C)c2C)cc1 | 32.5% |
| COc1cccc(NC(=O)CCC2CCN(C(=O)c3scnc3C)CC2)c1 | -6.41% |
| Cc1ccnc2nc(C(=O)OCC(=O)NC3CCCC(C)C3C)nn12 (stereo not shown) | -10.4% |
| CCCn1c(C(=O)c2ccccc2OC)nc2ccccc21 | -47% |
| CN(CCO)c1nc(NCc2ccccc2)c2cnn(C)c2n1 | 9.03% |
| COc1ccc(N2CCN(CCCNC(=O)c3ccc(CS(=O)(=O)c4ccc(OC)cc4)o3)CC2)cc1 | -68.9% |
| COc1cccc(/C=C(/CC(=O)Nc2ccc(N3CCOCC3)cc2)c2nc3ccccc3s2)c1 | 11.9% |
| COc1cc(C(=O)NNC2=NC(C)(C)Cc3cc(C)c(C)cc32)cc(OC)c1OC | 14.7% |
